Drawing on paper PMC9207808 (ACS Chemical Biology, 2022), this text covers Kd and koff for three substances.

The source holds more than one record for some entries. Only these are listed. An entry can have further records. Values given together read as repeated measurements on other runs, samples or individuals; a mean can stand among them.

The target of the assay is Doc1-122–His6 (DocSTm toxin) (Salmonella typhimurium). Briefly: SPR; Biacore S200; Doc-His6 captured on a Series S NTA chip (200-400 RU); peptide as analyte, single-cycle kinetics, six concentrations (3-fold dilutions), 30 uL/min; 22 C; 10 mM HEPES, 500 mM NaCl, 50 uM EDTA, 0.005% TWEEN 20, pH 8.0; kinetic 1:1 fit. On the technique in general: SPR reads the build-up and loss of mass on a sensor chip optically.
Take peptide 1 (PhdSTm52-73): the Kd – broadly, the constant that tells how readily two partners part at equilibrium – is on record as 0.0734, 0.0838, 0.0591, 0.0819 nM and the dissociation rate constant (koff) – broadly, a measure of how fast the partners let go of each other – is on record as 7.7e-05 1/s, 8.9e-05 1/s, 9.5e-05 1/s, 0.000104 1/s.
As to peptide 12 (PhdSTm52-73-N65A), the Kd is listed as 0.251, 0.166, 0.0853, 0.0833 nM and the off-rate constant (koff) was 0.000316 1/s, 0.000264 1/s, 0.00011 1/s, 0.00012 1/s.
Take peptide 19 (PhdSTm52-73-K73A): the Kd was 0.101, 0.0634, 0.1, 0.103 nM and the koff is reported as 0.000109 1/s, 0.000134 1/s, 0.000128 1/s, 0.000132 1/s.
